In all, about 340,000 compounds went through this assay and about 530 (0.16%) were called active. Inconclusive means that the source gave no clear call. Such entries were picked first, then a sample of the others. Rule as the data show it: active = activity change below about -80%; inconclusive = between about -30% and that limit; inactive = weaker than that.
assay: Small Molecules that selectively kill Giardia lamblia: qHTS; conditions: Giardia lamblia trophozoite viability; at 7.66 µM; hits give low values;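 also: parasites exposed to compound for two days anaerobically before the ATP read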
Outline: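 Luminescence from cellular ATP indicates surviving trophozoites (100 cells/well) following 48 hrs anaerobic compound treatment at 37 deg C; signal develops 15-30 min at room temperature.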
% is scaled to controls: 0 for no effect and ±100 for the full control effect.

Row | SMILES | activity change
1 | O=C(c1cc(-c2ccccc2)nc2ccccc12)N1CCN(c2ccccc2O)CC1 | inactive: 5.47%
2 | COc1ccccc1NC(=O)C(C)OC(=O)CSCC(=O)Nc1cc(C)on1 (stereo not drawn) | inconclusive: -41.6% [inhibitor]
3 | COc1ccc(NC(=O)C(c2ccccn2)N(C(C)=O)c2ccc(C)cc2)cc1 (stereo not drawn) | inactive: 7.21%
4 | COCCOC(=O)c1c(NC(=O)CN2CCc3ccccc32)sc(C(N)=O)c1C | inconclusive: -33.7% [inhibitor]
5 | CCCCOc1ccc(C(O)(CCN2CCOCC2)c2ccccc2)cc1 (stereo not drawn) | inactive: -12.6%
6 | N/C(=N\OC(=O)c1ccco1)c1ccc(Cl)cc1 | inconclusive: -41.1% [inhibitor]
7 | O=C(NC(=S)Nc1ccc2c(c1)OCCO2)c1ccco1 | inconclusive: -36.1% [inhibitor]
8 | O=C(Nc1cccc(S(=O)(=O)N2CCCCC2)c1)c1ccc([N+](=O)[O-])o1 | active: -96.1%
9 | Cc1cccnc1Nc1nc(-c2ccccc2)cs1 | inactive: -8.34%
10 | COc1cccc2oc3cc(C#CC4(O)CCCCC4)ccc3c(=O)c12 | inconclusive: -39.7% [inhibitor]
11 | CC(=O)Oc1ccc(/C=C2/CCc3ccccc3C2=O)cc1 | inconclusive: -53.8% [inhibitor]
12 | COc1ccc(Cl)cc1N(C(C)C(=O)NC1CCCC1)S(C)(=O)=O (stereo not drawn) | inactive: 11.7%
13 | COc1ccc(-c2nc3ccccn3c2NC2CCCCC2)cc1SC1CCCCC1 | inactive: 17.6%
14 | CCc1ccc(Nc2nnc(SCC(=O)Nc3ccc(C(=O)O)cc3)s2)cc1 | inconclusive: -36.8% [inhibitor]
15 | Cn1cc[nH]c1=S | inconclusive: -35.9% [inhibitor]
16 | N#CCSc1nc(-c2ccccc2)c2cc(Cl)ccc2n1 | inconclusive: -31.6% [inhibitor]
17 | O=C(c1cc(-c2ccc(O)cc2)on1)N1CCCCCC1 | inactive: -8.37%
18 | N#Cc1ccc(CN2CCN(C(=O)c3cc(C4CC4)nn3-c3ccccc3)CC2)cc1 | inconclusive: -30.3% [inhibitor]
19 | CCn1c(C)cc(/C=C2/SC(=O)N(CC(=O)N3CCCC3)C2=O)c1C | inactive: -15.5%
20 | N/C(=N/OC(=O)c1ccc(Cl)cc1)c1ncc([N+](=O)[O-])s1 | inconclusive: -55.9% [inhibitor]
21 | O=C1OCCN1C(=O)[C@H]1[C@H](c2ccccc2)C(c2cccc(Cl)c2)=NN1c1ccc(Br)cc1 | inactive: -18.9%
22 | O=C(O)c1cccc(NC(=S)N/N=C/c2ccccc2OCc2ccc(Br)cc2)c1 | inconclusive: -32.4% [inhibitor]
23 | COc1ccc(-c2csc(NC(=S)NC(=O)/C=C/c3ccco3)n2)cc1Br | inconclusive: -35.2% [inhibitor]
